According to paper PMC12136788:
This is one part of the list.

B1: chr12:32755127:32755228:-|CDS|ENSG00000139131|unk|total|mutant (ssRNA)
RNA: GGGAGUUCUACAGUCCGACGAUCCUUCUAUUACCUCUUCCAGCGUUAUGGAUGCAGGGUCCAGCUGGGCGGAUCUGAUCAACCCGGCAACAUCAUGUCCGGAUAUGAGUUCAUCAACAAGUAAGUGCCUUUAAACCUUGGGGACAACAGAGGAUUGAGCAUCA
B2: chr5:72198766:72198867:+|CDS|ENSG00000131711|msi1_unk|total|mutant (ssRNA)
RNA: GGGAGUUCUACAGUCCGACGAUCUUCUACCUCUGCAGUCAAAGAGAAAACAGCAACUUGCCACAGUUCCUCUUCUCCACCAACCGAUGCAGCAUCCGCAGAGCCCUAUGGCUUCCGUGCCUCAGUGUUAUUCGAUACAAUGCACAACAGAGGAUUGAGCAUCA
B3: chr16:84129640:84129741:-|CDS|ENSG00000103160|unk|FALSE|unique (ssRNA)
RNA: GGGAGUUCUACAGUCCGACGAUCCUUGCAAUAUGAAUAUGCCUCUAAAGGAAUCUUUGUACAGAGUCUAAUCCCUUUCUAUGUAGCCACCAGCAUGACAGCACCCAGCAACUUUCUGCACAGGUGCUCGUGGUUGGUGCCUUCCAACAGAGGAUUGAGCAUCA
B4: chr11:8980169:8983969:-|three_prime_utr|ENSG00000175352|control|control|control (ssRNA)
RNA: GGGAGUUCUACAGUCCGACGAUCAAUUAUACUACAAAUCCACCCUUCCCCACACCCAGAGUUCAUCACCCCACAAAACUCUGUAGUGCACACAUCAGAAUGAGCAAUGGUGAUGCCACACAGAGUGGUAGGGAAAUGACUAGCCAACAGAGGAUUGAGCAUCA
B5: ENSG00000198589:be:win_1701|CDS|ENSG00000198589|bound_else_gene|NA|bound_elsewhere_windowed (ssRNA)
RNA: GGGAGUUCUACAGUCCGACGAUCAUUGUGUGAUCACGUUCUUCUUAAUCCUGCCAUAUGGAUUCAUACCCCAGCCAAGGUUCAACUGAUGCUCUAUACUUAUCUGUCCACGGAAUUCAUUGGUACAGUCAACAUAUAUAACACCAACAGAGGAUUGAGCAUCA
B6: chr11:10797513:10797714:-|3pUTR|ENSG00000110321|msi1_unk|FALSE|overlapping (ssRNA)
RNA: GGGAGUUCUACAGUCCGACGAUCUUCUGCAUAAGGUUUUUUUGUAGUGUAAUGUCUUAAUCAUAGUCUACCAUCAAAUAUUUUAGGAGUAUCUUUAAUGUUUAGAUAGUAUAUUAGCAGCAUGCAAUAAUUACAUCAUAAGUUCAACAGAGGAUUGAGCAUCA
B7: ENSG00000107863:be:win_3701|CDS|ENSG00000107863|bound_else_gene|NA|bound_elsewhere_windowed (ssRNA)
RNA: GGGAGUUCUACAGUCCGACGAUCUCUUCACAAAUGAUAAAUAUGCUGAUUUUAUUGAAGCCAAUCGUAAAGAAGAUCCUCUAGAUCGUCUGAAAACAUUAAAAAGACUAAUUCACGAUUUGCCUGAACAUCAUUAUGAAACACCAACAGAGGAUUGAGCAUCA
B8: chr6:43570573:43570674:-|CDS|ENSG00000124571|unk|total|mutant (ssRNA)
RNA: GGGAGUUCUACAGUCCGACGAUCGGUGCCGGAAACACAGACAGAAUUGGUGAUGUUUAUCCUUUUGCGACUGGCAGAGGAUGCCGUGACUUUUCAGACACUUCCCCCUCAAAGAAGAAGGGACAUCCAGCAAACAUUAACCCACAACAGAGGAUUGAGCAUCA
B9: chr7:107760707:107760808:+|3pUTR|ENSG00000105879|unk|total|mutant (ssRNA)
RNA: GGGAGUUCUACAGUCCGACGAUCAAACAUGAAAUAUGCCGUAUGCAGAUAUCAUUUAUCCGACCGUUUGCCGUGUAUACAUUCCGAACAUACUUCUUUUGACAAAGGGUGAUCUGAUUGCUAAUUUACCAUUUUAUUCUGUCACAACAGAGGAUUGAGCAUCA
B10: ENSG00000135018:stop:overlap|stop_codon|ENSG00000135018|stop_codon|NA|stop_codon (ssRNA)
RNA: GGGAGUUCUACAGUCCGACGAUCUAGCAACAGGAGGUGAUAUCAAUGCAGCUAUUGAAAGGUUACUGGGCUCCCAGCCAUCAUAGCAGCAUUUCUGUAUCUUGAAAAAAUGUAAUUUAUUUUUGAUAACGGCUCUUAAACUUUCAACAGAGGAUUGAGCAUCA
B11: ENSG00000140564:stop:overlap|stop_codon|ENSG00000140564|stop_codon|NA|stop_codon (ssRNA)
RNA: GGGAGUUCUACAGUCCGACGAUCGCACGGCACACGGUGUGCGGGGGAAGUGGCUGCGGUGGCCAACAACGGUGUCUGUGGUGUAGGUGUGGCCUACAACGCCCGCAUUGGAGGGGUGCGCAUGCUGGAUGGCGAGGUGACAGACAACAGAGGAUUGAGCAUCA
B12: chr6:26414640:26414744:+|3pUTR|ENSG00000026950|unk|FALSE|unique (ssRNA)
RNA: GGGAGUUCUACAGUCCGACGAUCCAGGCAGAGCAAAUACCCUAGAGAUUCUCUGUGAUAUAGGAAAUUUGGAUGAAGGGAGCUAGAAGAAAUACAGGGAUUUUUUUUUUUUUUUAAGAUGGAGUCUUACUCUGUUGCUAGGCUCAACAGAGGAUUGAGCAUCA
B13: chr17:81921741:81921842:-|3pUTR|ENSG00000197063|msi1|FALSE|unique (ssRNA)
RNA: GGGAGUUCUACAGUCCGACGAUCAAUUAUAUGUUUAAAAGUUAAAGAAAAAAGAGCUGCAGAGUAUUUAUAAAACUGUCUUUUAGAAAAAAAACAAGCAAGAAGACCAUUUGACCAUAUGAAUGGAAAAGGGAAGAAAGUAUACAACAGAGGAUUGAGCAUCA
B14: chr2:48962156:48962732:-|three_prime_utr|ENSG00000170820|control|control|control (ssRNA)
RNA: GGGAGUUCUACAGUCCGACGAUCUAUUCCUGGCAUACCUUUAAGGUAAAUUGGUCAGGAACUAUUAAUUCCAUGUGAUACAUUAGGAAGCUGAAUUAUUAGUAACAACAAUAAUAAUUAAAGAAUGCAAUACUGUAUUACAUACAACAGAGGAUUGAGCAUCA
B15: chr12:39369705:39369875:-|CDS|ENSG00000139116|unk|total|mutant (ssRNA)
RNA: GGGAGUUCUACAGUCCGACGAUCGGGUAUUAUUUCUCGAGCUGUUAAACACCUUUUUAAGAGUAUUGAAGAAAAAAAACACACCGCAAUUAAAAAUGGGCUUCCUGCUCCAGAUUUUAAAGUGAAUGCCCAAUUCUCCGAGGUCAACAGAGGAUUGAGCAUCA
B16: chr15:49644301:49644402:+|3pUTR|ENSG00000104047|msi1|total|mutant (ssRNA)
RNA: GGGAGUUCUACAGUCCGACGAUCAAUAAUUGAAGCCUACCUGCCCGUGGCCAUCUCUGCUGCCAGGUGAAAAGAGCCUGACUCCGAAUGAAGUCAGCGAAGGAAAGCAGAGUGGAGAGAAAAAGAGAGACUGAGUCCUGAUGACAACAGAGGAUUGAGCAUCA
B17: chr17:30194318:30198530:-|three_prime_utr|ENSG00000108576|control|control|control (ssRNA)
RNA: GGGAGUUCUACAGUCCGACGAUCCCAGACUCAAGGCCUCCAGCCACUUAUUUCCAUGGAUUCCCCUGGACAUAUUCCCAUGGUAGACUGUGACACAGCUGAGCUGGCCUAUUUUGGACGUGUGAGGAUGUGGAUGGAGGUGAUCAACAGAGGAUUGAGCAUCA
B18: chr13:30280108:30280219:-|CDS|ENSG00000102781|unk|total|mutant (ssRNA)
RNA: GGGAGUUCUACAGUCCGACGAUCUAAGGUUCGGCAGGAAUUAUUGGAGGAAUAUGAACAAGUUAAAAGUAUUGUCAGCACUUCCGAAAGUUUUAAAAUUGACAAGCCUCCAGAUUUCCCUGUGUCCUGUCAAGAUGAACCAUUCAACAGAGGAUUGAGCAUCA
B19: chr5:134606522:134606623:-|3pUTR|ENSG00000152700|msi1_unk|FALSE|overlapping (ssRNA)
RNA: GGGAGUUCUACAGUCCGACGAUCAACUAUAAACCAUAUUUAAAAGCUCAUCAUGUUAAAUUUUUUAUGUACUUUUCUGGAACUAGUUUUUAAAUUUUAGAUUAUAUGUCCACCUAUCUUAAGUGUACAGUUAAUAAUUAGCUUCAACAGAGGAUUGAGCAUCA
B20: ENSG00000196526:stop:overlap|stop_codon|ENSG00000196526|stop_codon|NA|stop_codon (ssRNA)
RNA: GGGAGUUCUACAGUCCGACGAUCCCCCCUGCCGAGGGCAUGUGCUGCGGAAGGCCAAGGAAUGGGAAUUGAAGAACGGGACCUAGGGGACAGCAGCACCACUCCAGCCUCAGAGACUGCACACCCCCUUGCCUGUAUCCUCAUCAACAGAGGAUUGAGCAUCA
B21: chr11:72288215:72288316:-|3pUTR|ENSG00000162129|unk|total|mutant (ssRNA)
RNA: GGGAGUUCUACAGUCCGACGAUCACCCAGCUAAUUUUUUUUGUAUUUUCCGUAAAGACGGGGUUUCACCAUGUUUGCCAGGCCCGUCUCAAACUCCUGGUCUCAAGUGAUCCACCCACCUUGGCCUCCCAGAGUGCUGAGAUUCAACAGAGGAUUGAGCAUCA
B22: chr19:1826877:1828631:-|CDS|ENSG00000079313|control|control|control (ssRNA)
RNA: GGGAGUUCUACAGUCCGACGAUCCGACAGGAAGAGCACCAAGGCCCCGUCGGGGAAGCUAGUGGAGCGGAAAGCCCGCUCACUAGACGAGGGCGCCUCCCAGGACGCCCCCAAGCUGAAGAAGCGGGCCCUGAGCCACGCCGACAACAGAGGAUUGAGCAUCA

target: MSI1 full-length (mouse, UniProt Q61474 1-362); experiment: nsRBNS (natural sequence RNA bind-n-seq); RBNS binding buffer (assumed for nsRBNS): 25 mM Tris pH 7.5, 150 mM KCl, 3 mM MgCl2, 0.01% Triton X-100, 500 ug/ml BSA, 20 U/ml SUPERase-In, 4 C; UNK is unkempt and MSI1 is Musashi-1; names of the RNAs are library labels; protein concentration not given here; high values mean tight binding
UniProt Q61474, sequence (Q61474 whole entry): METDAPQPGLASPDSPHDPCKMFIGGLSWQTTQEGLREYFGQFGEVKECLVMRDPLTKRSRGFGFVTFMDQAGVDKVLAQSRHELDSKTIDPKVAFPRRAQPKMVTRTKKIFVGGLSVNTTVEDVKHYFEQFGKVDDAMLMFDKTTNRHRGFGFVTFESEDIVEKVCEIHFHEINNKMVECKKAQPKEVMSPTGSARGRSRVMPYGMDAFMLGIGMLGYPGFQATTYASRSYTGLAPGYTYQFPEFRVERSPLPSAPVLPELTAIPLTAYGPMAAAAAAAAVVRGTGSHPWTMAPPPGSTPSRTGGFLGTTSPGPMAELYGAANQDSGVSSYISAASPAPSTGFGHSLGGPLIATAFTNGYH

Binder | binding signal
B1 | 0.301 enrichment R
B2 | 0.357 enrichment R
B3 | 0.293 enrichment R
B4 | 0.97 enrichment R
B5 | 0.327 enrichment R
B6 | 4.18 enrichment R
B7 | 0.374 enrichment R
B8 | 0.4 enrichment R
B9 | 0.319 enrichment R
B10 | 0.35 enrichment R
B11 | 7.13 enrichment R
B12 | 2.25 enrichment R
B13 | 7.59 enrichment R
B14 | 0.538 enrichment R
B15 | 0.865 enrichment R
B16 | 0.424 enrichment R
B17 | 0.409 enrichment R
B18 | 0.268 enrichment R
B19 | 13.2 enrichment R
B20 | 1.09 enrichment R
B21 | 0.928 enrichment R
B22 | 0.377 enrichment R
